Whole data set: some 33,000 sequences, median “E-score (-0.5 to 0.5)” near -0.035, cut for the highest 2% near 0.35. This is one part of the list.
Biological target: T1, Pdr3 (UniProt P33200)
T1 sequence: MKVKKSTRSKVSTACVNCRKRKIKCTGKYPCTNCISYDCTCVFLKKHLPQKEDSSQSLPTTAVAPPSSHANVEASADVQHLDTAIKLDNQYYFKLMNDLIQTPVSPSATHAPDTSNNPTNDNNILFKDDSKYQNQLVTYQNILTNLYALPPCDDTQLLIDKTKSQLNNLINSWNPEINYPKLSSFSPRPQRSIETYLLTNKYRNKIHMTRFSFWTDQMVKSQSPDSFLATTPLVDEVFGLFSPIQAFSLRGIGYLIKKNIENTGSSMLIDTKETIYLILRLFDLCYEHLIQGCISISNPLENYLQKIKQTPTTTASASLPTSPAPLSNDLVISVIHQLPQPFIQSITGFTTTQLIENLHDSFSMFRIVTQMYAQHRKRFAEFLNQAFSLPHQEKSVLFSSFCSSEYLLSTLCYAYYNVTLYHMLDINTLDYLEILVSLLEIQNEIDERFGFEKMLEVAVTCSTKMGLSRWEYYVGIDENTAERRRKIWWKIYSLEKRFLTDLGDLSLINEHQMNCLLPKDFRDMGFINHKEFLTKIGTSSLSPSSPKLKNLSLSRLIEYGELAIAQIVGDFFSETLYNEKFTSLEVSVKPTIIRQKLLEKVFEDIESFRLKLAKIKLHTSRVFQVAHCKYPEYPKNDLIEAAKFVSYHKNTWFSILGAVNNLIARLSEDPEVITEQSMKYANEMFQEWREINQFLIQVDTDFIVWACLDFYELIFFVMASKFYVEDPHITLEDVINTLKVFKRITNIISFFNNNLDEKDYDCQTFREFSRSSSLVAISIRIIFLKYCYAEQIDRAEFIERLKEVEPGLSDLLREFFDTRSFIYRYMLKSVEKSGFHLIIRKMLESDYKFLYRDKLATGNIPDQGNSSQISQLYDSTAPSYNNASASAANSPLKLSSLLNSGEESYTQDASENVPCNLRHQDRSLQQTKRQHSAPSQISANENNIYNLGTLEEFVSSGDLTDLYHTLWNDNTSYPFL
Assay: PBM E-score (8-mer binding enrichment) (E-score (-0.5 to 0.5)); higher = stronger / more preferred TF binding; most listed sequences are background and not binding sites
Details: protein concentration: 200 nM; construct: GST-full length
Outline: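 Detection of bound protein used fluorescent anti-GST, with scans normalised by masliner. The proteins were GST-tagged yeast transcription factors applied at about 100-200 nM to universal all-10-mer Agilent arrays made double-stranded by primer extension. Each ungapped eight-base word, pooled with its reverse complement, was scored with an E-score from the Universal PBM Analysis Suite.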

Sequence	PBM E-score
CAACGCCC	-0.0137
AGCCCTAC	-0.089
GTGTTGCA	-1e-05
CAATAGCG	-0.0265
CTATTAAC	-0.0056
GGGATTAA	0.194
ATAAGGAA	-0.168
GTCATCTA	0.0242
GACATGCC	0.0765
AGAAATCT	-0.0933
CATCCGAC	0.276
ACAGGATG	0.012
ACAGGAGA	0.0653
ACTCCCAG	0.0209
TGGGAGAA	-0.284
ATCAGCCG	0.246
ACATCCGC	0.343
CTTCTGGA	-0.0291
AGAATTCA	-0.189
TGCTTCCA	-0.309
AGGGCCAG	-0.166
ACTGCAGT	-0.218
GGCCTCCC	0.0149
ACTCCCAT	-0.168
ATTGACTG	-0.0917

Sequence	PBM E-score
TTATACAA	-0.0528
ATTTTCGG	0.222
CCGGGACG	0.365
CATCTCCA	-0.0531
ACGAACAT	0.0776
CGCTGTAA	0.104
ACACATTG	0.218
ACAAATCG	-0.0329
AAGATAGG	-0.249
AGCATATG	-0.291
ATTGGGGC	-0.0658
AAGGCCCG	0.121
GCTTCTGA	0.06
AGACATGA	-0.245
GGAACTTA	0.234
AAGAGCGT	-0.0582
ATTCACAC	0.0802
GCTACGCA	-0.0228
GCGATGCC	-0.106
GTGAGCAA	-0.185
CCTAGGAC	-0.159
GAGTCAGC	-0.209
CCCCTCAC	0.0434
ACAGGGAC	0.0175
CTCCGTGC	0.263

Sequence	PBM E-score
TAAACCCA	-0.103
CTTATCGA	0.0214
AGCTCCAT	-0.0395
GGTATATA	0.0219
ACACTATA	-0.0905
CATGAGGC	-0.0833
GTCTATAA	-0.0998
ATCAACAG	0.125
AGATAGAA	-0.0842
ACTCGACC	-0.0578
ATAGATAA	-0.0586
CACTGTAG	0.00579
CAGCACTG	-0.0433
GGCAAGGA	0.0896
CCGGTAAA	0.238
AAGAGAGC	-0.0321
GATTGACA	-0.0696
AGGGTCTG	-0.28
AGTCTAAT	-0.331
CAGACCAG	-0.0503
CCTGTGCA	-0.136
AGACATTC	-0.0597
CCAAAGAA	-0.041
AGAGCGCC	0.0515
AGTACCGA	0.0497

Sequence	PBM E-score
GCCACAAC	0.0112
CCACAGGC	-0.294
AGCCATCG	-0.134
GACTGATC	-0.214
AAGCCCGC	0.213
ACGAGCCA	-0.197
GATTGACC	-0.0167
ATACCTCG	0.00876
CCTATCGC	-0.199
AAGCGGGC	-0.0526
AAGTCGCA	0.069
CCATAAGC	-0.156
AGACGGCA	0.202
ATGGCGCC	0.129
AATCGCGA	0.158
CCGATCCG	0.371
TATGTCAA	0.0343
CTGACCTA	-0.226
GGAGGGCC	-0.0809
ACCACACA	-0.00201
ACAGCTGC	-0.168
ATAACCTG	-0.239
ATGATTGA	-0.104
AAATTGTT	-0.0305
CCACGCAC	0.0352

Sequence	PBM E-score
ATATGGTC	0.00074
ATCTGCCA	-0.133
CTCGCTTA	0.00027
CCCCGCCG	0.226
GAGTTGTA	-0.0708
CATTAACA	0.00613
CGACTGAG	-0.137
AGTGGAAT	-0.0242
ATAACTTA	-0.0936
ACCGCTGC	-0.0522
CATTGTAA	-0.0545
CATCATGA	-0.0434
ACGACTCC	-0.109
AACCGCAG	-0.0195
CCTAACGC	-0.0732
CATCAGTA	-0.172
AGCTGAAT	-0.0932
AACCGAGG	-0.031
CGTTCCTC	0.194
CACTGTTA	-0.2
CACCTCAA	-0.0547
ATGACATC	0.0327
CCCTAGGG	-0.262
CTTGCCAA	-0.215
TTCAGGAA	-0.117

Sequence	PBM E-score
AAAGACCA	-0.341
GGAACCTA	0.3
ACTGAATG	0.0997
CGCCTACG	0.0504
TGACCAAA	0.0396
AATAATCT	0.0515
ATTAGGCG	0.00114
ATGAACGA	-0.188
ATTAAACA	-0.184
AATATCTA	-0.0835
GGTGACGA	-0.231
CAGCTCCC	-0.238
GAACCTCC	0.0549
AGTAAAGG	0.0136
AGAGGTGG	-0.183
CACGCGAG	0.0113
GAGCAGAC	-0.194
TGACAACA	-0.117
ACTAGGCC	-0.104
CCGTAAGG	-0.138
GTTAGATA	-0.129
CACATGCC	0.0479
ACTCGCAT	0.00737
CTTGGGGA	-0.143
CGAAAAGC	0.0467

Sequence	PBM E-score
CCATTCGC	-0.137
TGTCGTAA	-0.113
CCCGTGTC	0.244
CAGAGGAA	0.0208
ATTTAGTC	0.129
GCCAACTA	-0.165
ATCGTAAC	0.0598
ACGGTGGG	-0.0386
CGGTACCG	0.362
GGCTTTTA	-0.15
GCTGGTCC	0.104
AATATGTC	-0.0211
CGCGAGGA	0.135
ACTTGTAA	-0.217
AAATAAGC	-0.25
CACGGTCG	-0.0168
TCTAGGCA	-0.152
CTGTCTAA	-0.0185
TCCAAGCA	-0.167
GATTCCGC	0.455
CGCCGACG	0.0962
ACACCCCC	-0.198

Reference: the supplement of paper PMC3334620
